# Reference: EP1383793B1 (priority 2000, dated 2001)
# Part of at least one peptide drawing is inferred or uncertain, most often the ends. At least one compound was matched to its structure with a doubt left. No end group written: not given here.
# Biological target: T1, human insulin receptor (HIR) (Homo sapiens, UniProt P06213)
# T1 construct: made in house
# Assay: 125I-insulin competition binding assay on solubilised purified receptor
# Conditions: peptide corresponding to the phage (~J229, S124 as named in the cell)
# T1 sequence (P06213 28-758 limits assumed): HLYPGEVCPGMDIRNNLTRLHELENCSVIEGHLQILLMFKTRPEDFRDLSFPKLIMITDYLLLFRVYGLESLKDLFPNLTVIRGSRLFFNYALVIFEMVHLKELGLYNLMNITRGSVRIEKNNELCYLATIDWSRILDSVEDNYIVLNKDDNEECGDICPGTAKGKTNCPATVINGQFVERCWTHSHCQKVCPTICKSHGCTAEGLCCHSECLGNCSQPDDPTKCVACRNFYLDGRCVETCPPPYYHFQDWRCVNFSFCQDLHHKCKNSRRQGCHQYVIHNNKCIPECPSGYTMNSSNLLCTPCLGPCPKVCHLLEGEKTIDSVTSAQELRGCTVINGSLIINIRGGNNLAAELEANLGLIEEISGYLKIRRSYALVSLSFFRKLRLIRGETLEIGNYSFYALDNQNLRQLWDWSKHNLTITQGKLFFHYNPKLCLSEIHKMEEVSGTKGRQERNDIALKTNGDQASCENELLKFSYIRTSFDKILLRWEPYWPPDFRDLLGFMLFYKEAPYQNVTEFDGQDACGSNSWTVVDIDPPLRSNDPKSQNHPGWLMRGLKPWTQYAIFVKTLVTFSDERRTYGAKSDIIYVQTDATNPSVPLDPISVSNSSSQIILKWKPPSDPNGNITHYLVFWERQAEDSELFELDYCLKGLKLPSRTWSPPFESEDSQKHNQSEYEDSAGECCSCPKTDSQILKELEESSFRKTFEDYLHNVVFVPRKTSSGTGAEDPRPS
# T1 sequence (P06213 763-1382 limits assumed): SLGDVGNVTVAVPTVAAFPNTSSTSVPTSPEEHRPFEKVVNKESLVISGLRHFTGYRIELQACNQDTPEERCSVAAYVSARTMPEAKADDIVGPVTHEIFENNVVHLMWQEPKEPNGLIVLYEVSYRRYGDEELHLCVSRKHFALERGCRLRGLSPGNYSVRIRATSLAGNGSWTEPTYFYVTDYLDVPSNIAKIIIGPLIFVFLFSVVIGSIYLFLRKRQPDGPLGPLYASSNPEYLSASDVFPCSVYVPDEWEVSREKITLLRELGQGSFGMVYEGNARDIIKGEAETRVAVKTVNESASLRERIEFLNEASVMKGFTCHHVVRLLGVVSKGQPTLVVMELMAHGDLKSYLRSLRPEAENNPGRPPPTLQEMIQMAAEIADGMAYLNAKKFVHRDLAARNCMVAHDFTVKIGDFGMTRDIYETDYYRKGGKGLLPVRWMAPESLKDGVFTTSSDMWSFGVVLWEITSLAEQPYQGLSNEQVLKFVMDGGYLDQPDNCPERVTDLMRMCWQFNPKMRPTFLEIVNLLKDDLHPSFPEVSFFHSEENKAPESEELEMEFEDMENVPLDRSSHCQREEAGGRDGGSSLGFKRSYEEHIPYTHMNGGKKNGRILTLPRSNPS
row,IC50,Compound
1,~24 µM,HPPLSELKLFLIKK [Clone S124]

# Same assay, conditions: read-out: HIR affinity
row,Kd,Compound
1,2.4 µM,CC[C@H](C)[C@H](NC(=O)[C@H](C)NC(=O)[C@H](CC(N)=O)NC(=O)[C@H](Cc1ccc(O)cc1)NC(=O)[C@H](Cc1ccccc1)NC(=O)CNC(=O)[C@H](CC(=O)O)NC(=O)[C@@H](N)CO)C(=O)N[C@@H](CCC(=O)O)C(=O)N[C@@H](CC(C)C)C(=O)N[C@@H](CC(C)C)C(=O)N[C@@H](CO)C(=O)O [Clone S118]
2,2.9 µM,SSNFYQALMLLS [Clone S129]
3,> 2 µM,FQSLLEELVWGAPLFRYGTG [Clone S224]
4,> 20 µM,FHENFADWFVRQVSKK [Clone S220]
5,0.85 µM,CC(C)C[C@H](NC(=O)[C@H](CCC(=O)O)NC(=O)[C@H](C)NC(=O)[C@@H](NC(=O)[C@H](Cc1ccccc1)NC(=O)[C@H](Cc1c[nH]c2ccccc12)NC(=O)[C@H](CC(=O)O)NC(=O)[C@H](Cc1ccc(O)cc1)NC(=O)[C@H](Cc1ccccc1)NC(=O)[C@H](CC(N)=O)NC(=O)[C@H](C)NC(=O)[C@H](CC(N)=O)NC(=O)[C@H](CCCNC(=N)N)NC(=O)[C@H](CCC(N)=O)NC(=O)[C@@H](N)CC(C)C)C(C)C)C(=O)NCC(=O)O [Clone S238]
6,0.74 µM,GRVDWLQRNANFYDWFVAE [Clone S249]
7,5.6 µM,GRVDWLQRNANFYDWFV [Clone S251]
8,0.063 µM,CC(C)C[C@H](NC(=O)[C@H](CCC(=O)O)NC(=O)[C@H](C)NC(=O)[C@@H](NC(=O)[C@H](Cc1ccccc1)NC(=O)[C@H](Cc1c[nH]c2ccccc12)NC(=O)[C@H](CC(=O)O)NC(=O)[C@H](Cc1ccc(O)cc1)NC(=O)[C@H](Cc1ccccc1)NC(=O)[C@H](CC(N)=O)NC(=O)[C@H](C)NC(=O)[C@H](CC(N)=O)NC(=O)[C@H](CCCNC(=N)N)NC(=O)[C@H](CCC(N)=O)NC(=O)[C@H](CC(C)C)NC(=O)[C@H](Cc1c[nH]c2ccccc12)NC(=O)[C@H](CC(=O)O)NC(=O)[C@@H](NC(=O)[C@H](CCCNC(=N)N)NC(=O)CN)C(C)C)C(C)C)C(=O)O [Clone S248]
9,0.85 µM,CC(C)C[C@H](NC(=O)[C@H](CCC(=O)O)NC(=O)[C@H](C)NC(=O)[C@@H](NC(=O)[C@H](Cc1ccccc1)NC(=O)[C@H](Cc1c[nH]c2ccccc12)NC(=O)[C@H](CC(=O)O)NC(=O)[C@H](Cc1ccc(O)cc1)NC(=O)[C@H](Cc1ccccc1)NC(=O)[C@H](CC(N)=O)NC(=O)[C@H](C)NC(=O)[C@H](CC(N)=O)NC(=O)[C@H](CCCNC(=N)N)NC(=O)[C@H](CCC(N)=O)NC(=O)[C@H](CC(C)C)NC(=O)[C@@H](N)Cc1c[nH]c2ccccc12)C(C)C)C(=O)NCC(=O)O [Clone S237]
10,2 µM,CC(C)[C@H](NC(=O)[C@H](Cc1ccccc1)NC(=O)[C@H](Cc1c[nH]c2ccccc12)NC(=O)[C@H](CC(=O)O)NC(=O)[C@H](Cc1ccc(O)cc1)NC(=O)[C@H](Cc1ccccc1)NC(=O)[C@H](CC(N)=O)NC(=O)[C@H](CCC(=O)O)NC(=O)[C@H](Cc1c[nH]cn1)NC(=O)[C@@H](N)Cc1ccccc1)C(=O)N[C@@H](CCCNC(=N)N)C(=O)N[C@@H](CCC(N)=O)C(=O)N[C@H](C(=O)N[C@@H](CO)C(=O)N[C@@H](CCCCN)C(=O)N[C@@H](CCCCN)C(=O)NCC(=O)NCCCC[C@H](NC(=O)CNC(=O)[C@H](CCCCN)NC(=O)[C@H](CCCCN)NC(=O)[C@H](CO)NC(=O)[C@@H](NC(=O)[C@H](CCC(N)=O)NC(=O)[C@H](CCCNC(=N)N)NC(=O)[C@@H](NC(=O)[C@H](Cc1ccccc1)NC(=O)[C@H](Cc1c[nH]c2ccccc12)NC(=O)[C@H](CC(=O)O)NC(=O)[C@H](Cc1ccc(O)cc1)NC(=O)[C@H](Cc1ccccc1)NC(=O)[C@H](CC(N)=O)NC(=O)[C@H](CCC(=O)O)NC(=O)[C@H](Cc1c[nH]cn1)NC(=O)[C@@H](N)Cc1ccccc1)C(C)C)C(C)C)C(N)=O)C(C)C [Clone S149]
11,0.7 µM,CC(C)[C@H](NC(=O)[C@H](Cc1ccccc1)NC(=O)[C@H](Cc1c[nH]c2ccccc12)NC(=O)[C@H](CC(=O)O)NC(=O)[C@H](Cc1ccc(O)cc1)NC(=O)[C@H](Cc1ccccc1)NC(=O)[C@H](CC(N)=O)NC(=O)[C@H](CCC(=O)O)NC(=O)[C@H](Cc1c[nH]cn1)NC(=O)[C@H](Cc1ccccc1)NC(=O)CNC(=O)[C@@H](N)CSSC[C@H](N)C(=O)NCC(=O)N[C@@H](Cc1ccccc1)C(=O)N[C@@H](Cc1c[nH]cn1)C(=O)N[C@@H](CCC(=O)O)C(=O)N[C@@H](CC(N)=O)C(=O)N[C@@H](Cc1ccccc1)C(=O)N[C@@H](Cc1ccc(O)cc1)C(=O)N[C@@H](CC(=O)O)C(=O)N[C@@H](Cc1c[nH]c2ccccc12)C(=O)N[C@@H](Cc1ccccc1)C(=O)N[C@H](C(=O)N[C@@H](CCCNC(=N)N)C(=O)N[C@@H](CCC(N)=O)C(=O)N[C@H](C(=O)N[C@@H](CO)C(=O)N[C@@H](CCCCN)C(=O)N[C@@H](CCCCN)C(N)=O)C(C)C)C(C)C)C(=O)N[C@@H](CCCNC(=N)N)C(=O)N[C@@H](CCC(N)=O)C(=O)N[C@H](C(=O)N[C@@H](CO)C(=O)N[C@@H](CCCCN)C(=O)N[C@@H](CCCCN)C(N)=O)C(C)C [Clone S170]
12,2.7 µM,HETFYSMIRSLAK [Clone S117]
13,9.3 µM,HPTSKEIYAKLLK [Clone S122]
14,8.9 µM,GRVDWLQRNANFYDWFVA [Clone S250]
15,0.65 µM,EFHENFYDWFVRQVSEE [Clone S115]
16,2.5 µM,CC(C)[C@H](NC(=O)[C@H](Cc1ccccc1)NC(=O)[C@H](Cc1c[nH]c2ccccc12)NC(=O)[C@H](CC(=O)O)NC(=O)[C@H](Cc1ccc(O)cc1)NC(=O)[C@H](Cc1ccccc1)NC(=O)[C@H](CC(N)=O)NC(=O)[C@H](CCC(=O)O)NC(=O)[C@H](Cc1c[nH]cn1)NC(=O)[C@@H](N)Cc1ccccc1)C(=O)N[C@@H](CCCNC(=N)N)C(=O)N[C@@H](CCC(N)=O)C(=O)N[C@H](C(=O)N[C@@H](CO)C(=O)N[C@@H](CCCCN)C(=O)N[C@@H](CCCCN)C(=O)NCCC(=O)NCCC[C@H](NC(=O)CCNC(=O)[C@H](CCCCN)NC(=O)[C@H](CCCCN)NC(=O)[C@H](CO)NC(=O)[C@@H](NC(=O)[C@H](CCC(N)=O)NC(=O)[C@H](CCCNC(=N)N)NC(=O)[C@@H](NC(=O)[C@H](Cc1ccccc1)NC(=O)[C@H](Cc1c[nH]c2ccccc12)NC(=O)[C@H](CC(=O)O)NC(=O)[C@H](Cc1ccc(O)cc1)NC(=O)[C@H](Cc1ccccc1)NC(=O)[C@H](CC(N)=O)NC(=O)[C@H](CCC(=O)O)NC(=O)[C@H](Cc1c[nH]cn1)NC(=O)[C@@H](N)Cc1ccccc1)C(C)C)C(C)C)C(N)=O)C(C)C [Clone S155]
17,0.13 µM,CC(C)C[C@H](NC(=O)[C@H](CCC(=O)O)NC(=O)[C@H](C)NC(=O)[C@@H](NC(=O)[C@H](Cc1ccccc1)NC(=O)[C@H](Cc1c[nH]c2ccccc12)NC(=O)[C@H](CC(=O)O)NC(=O)[C@H](Cc1ccc(O)cc1)NC(=O)[C@H](Cc1ccccc1)NC(=O)[C@H](CC(N)=O)NC(=O)[C@H](C)NC(=O)[C@H](CC(N)=O)NC(=O)[C@H](CCCNC(=N)N)NC(=O)[C@H](CCC(N)=O)NC(=O)[C@H](CC(C)C)NC(=O)[C@H](Cc1c[nH]c2ccccc12)NC(=O)[C@H](CC(=O)O)NC(=O)[C@@H](NC(=O)[C@@H](N)CCCNC(=N)N)C(C)C)C(C)C)C(=O)NCC(=O)O [Clone S234]
18,1.1 µM,CC(C)[C@H](NC(=O)[C@H](Cc1ccccc1)NC(=O)[C@H](Cc1c[nH]c2ccccc12)NC(=O)[C@H](CC(=O)O)NC(=O)[C@H](Cc1ccc(O)cc1)NC(=O)[C@H](Cc1ccccc1)NC(=O)[C@H](CC(N)=O)NC(=O)[C@H](CCC(=O)O)NC(=O)[C@H](Cc1c[nH]cn1)NC(=O)[C@@H](N)Cc1ccccc1)C(=O)N[C@@H](CCCNC(=N)N)C(=O)N[C@@H](CCC(N)=O)C(=O)N[C@H](C(=O)N[C@@H](CO)C(=O)N[C@@H](CCCCN)C(=O)N[C@@H](CCCCN)C(=O)NCCC(=O)NC[C@H](NC(=O)CCNC(=O)[C@H](CCCCN)NC(=O)[C@H](CCCCN)NC(=O)[C@H](CO)NC(=O)[C@@H](NC(=O)[C@H](CCC(N)=O)NC(=O)[C@H](CCCNC(=N)N)NC(=O)[C@@H](NC(=O)[C@H](Cc1ccccc1)NC(=O)[C@H](Cc1c[nH]c2ccccc12)NC(=O)[C@H](CC(=O)O)NC(=O)[C@H](Cc1ccc(O)cc1)NC(=O)[C@H](Cc1ccccc1)NC(=O)[C@H](CC(N)=O)NC(=O)[C@H](CCC(=O)O)NC(=O)[C@H](Cc1c[nH]cn1)NC(=O)[C@@H](N)Cc1ccccc1)C(C)C)C(C)C)C(N)=O)C(C)C [Clone S148]
19,1.6 µM,NANFYDWFVAELG [Clone S241]
20,0.81 µM,FHENFYDWFVRQVSK [Clone S158]
21,2 µM,ANFYDWFVAELG [Clone S242]
22,> 20 µM,FHENFTDWAVRQVSKK [Clone S223]
23,16 µM,HPSTNQMLMKLFK [Clone S123]
24,3.1 µM,NSFYEALRMLSSK [Clone S121]
25,0.053 µM,CC(C)C[C@H](NC(=O)[C@H](CCC(=O)O)NC(=O)[C@H](C)NC(=O)[C@@H](NC(=O)[C@H](Cc1ccccc1)NC(=O)[C@H](Cc1c[nH]c2ccccc12)NC(=O)[C@H](CC(=O)O)NC(=O)[C@H](Cc1ccc(O)cc1)NC(=O)[C@H](Cc1ccccc1)NC(=O)[C@H](CC(N)=O)NC(=O)[C@H](C)NC(=O)[C@H](CC(N)=O)NC(=O)[C@H](CCCNC(=N)N)NC(=O)[C@H](CCC(N)=O)NC(=O)[C@H](CC(C)C)NC(=O)[C@H](Cc1c[nH]c2ccccc12)NC(=O)[C@H](CC(=O)O)NC(=O)[C@@H](N)C(C)C)C(C)C)C(=O)NCC(=O)O [Clone S235]
26,> 20 µM,FHENAYDWFVRQVSKK [Clone S219]
27,0.1 µM,CC(C)C[C@H](NC(=O)[C@H](CCC(=O)O)NC(=O)[C@H](C)NC(=O)[C@@H](NC(=O)[C@H](Cc1ccccc1)NC(=O)[C@H](Cc1c[nH]c2ccccc12)NC(=O)[C@H](CC(=O)O)NC(=O)[C@H](Cc1ccc(O)cc1)NC(=O)[C@H](Cc1ccccc1)NC(=O)[C@H](CC(N)=O)NC(=O)[C@H](C)NC(=O)[C@H](CC(N)=O)NC(=O)[C@H](CCCNC(=N)N)NC(=O)[C@H](CCC(N)=O)NC(=O)[C@H](CC(C)C)NC(=O)[C@H](Cc1c[nH]c2ccccc12)NC(=O)[C@@H](N)CC(=O)O)C(C)C)C(=O)NCC(=O)O [Clone S236]
28,2 µM,NFYDWFVAELG [Clone S243]
29,23 µM,HPPLSELKLFLIKK [Clone S124]
